About 75 (2%) of roughly 3,200 compounds showed an effect of 50% or more. The list shows a part of the results.
tested on: T1, S. aureus MSSA476; design: species or system S. aureus MSSA476 (TSB) or V. cholerae SAD30 (LB); 384-well bacterial growth screen at 25 uM, OD600 relative to DMSO control; conditions: relative growth, OD600, TSB; 25 µM; inhibitor
T1 construct: MSSA476

SMILES | % of control remaining
Cc1noc(CC(NC(=O)CCl)c2ccccc2)n1 (stereo not shown) [5-E04, 2-chloro-N-[2-(3-methyl-1,2,4-oxadiazol-5-yl)-1-phenylethyl]acetamide] | 113.661%
C=CC(=O)NCCC(=O)N1CCC(c2ncccn2)CC1 [3-M17, N-{3-oxo-3-[4-(pyrimidin-2-yl)piperidin-1-yl]propyl}prop-2-enamide] | 86.3735%
CCN(c1ccc(NC(=O)CCl)cc1)C(C)C.Cl [5-J08, 2-chloro-N-{4-[ethyl(propan-2-yl)amino]phenyl}acetamide hydrochloride] | 119.854%
Cc1cccc(Cc2cnc(NC(=O)CCl)s2)c1 [4-B09, 2-chloro-N-{5-[(3-methylphenyl)methyl]-1,3-thiazol-2-yl}acetamide] | 125.774%
CC1CCCC(NC(=O)C(C#N)=Cc2ccccc2)C1C (stereo not shown) [8-C19, 2-cyano-N-(2,3-dimethylcyclohexyl)-3-phenylprop-2-enamide] | 92.2822%
C=CC(=O)NCc1csc(C(C)(C)C)n1 [2-C09, N-[(2-tert-butyl-1,3-thiazol-4-yl)methyl]prop-2-enamide] | 105.135%
CC(Cl)C(=O)N1CCN(CCOc2ccc3c(c2)CCC3)CC1 (stereo not shown) [6-H17, 2-chloro-1-{4-[2-(2,3-dihydro-1H-inden-5-yloxy)ethyl]piperazin-1-yl}propan-1-one] | 96.2927%
CCOc1ccc(N2C(=O)C=CC2=O)cc1 [10-A14, 1-(4-ethoxyphenyl)-2,5-dihydro-1H-pyrrole-2,5-dione] | 141.563%
CC(Cl)C(=O)N(C)C1CCN(c2ccccn2)CC1 (stereo not shown) [6-J20, 2-chloro-N-methyl-N-[1-(pyridin-2-yl)piperidin-4-yl]propanamide] | 95.6098%
Cc1ccc(C2CC(c3cccs3)=NN2C(=O)CCl)cc1 (stereo not shown) [4-I22, 2-chloro-1-[5-(4-methylphenyl)-3-(thiophen-2-yl)-4,5-dihydro-1H-pyrazol-1-yl]ethan-1-one] | 118.533%
C=CC(=O)N(Cc1cc(Cl)ccc1OC)C1CCCOCC1 (stereo not shown) [2-C07, N-[(5-chloro-2-methoxyphenyl)methyl]-N-(oxepan-4-yl)prop-2-enamide] | 102.698%
Cc1cc(C)c(NC(=O)C(C)Cl)c(C)c1 (stereo not shown) [5-K15, 2-chloro-N-(2,4,6-trimethylphenyl)propanamide] | 104.554%
C=CC(=O)NC1CCN(Cc2ccc(Cl)cc2)CC1 [1-N08, N-{1-[(4-chlorophenyl)methyl]piperidin-4-yl}prop-2-enamide] | 110.418%
C=CC(=O)NC(C)C(c1ccccc1Cl)n1cccn1 (stereo not shown) [2-J05, N-[1-(2-chlorophenyl)-1-(1H-pyrazol-1-yl)propan-2-yl]prop-2-enamide] | 116.623%
CN(C)c1ccc(C=C(C#N)C(=O)Nc2nccs2)cc1 [8-E06, 2-cyano-3-[4-(dimethylamino)phenyl]-N-(1,3-thiazol-2-yl)prop-2-enamide] | 127.469%
CC(Cl)C(=O)NCc1ccccc1S(=O)(=O)N1CCOCC1 (stereo not shown) [7-K15, 2-chloro-N-{[2-(morpholine-4-sulfonyl)phenyl]methyl}propanamide] | 99.2151%
N#CC(=Cc1csc(COc2ccccc2)n1)C(N)=O [9-B12, 2-cyano-3-[2-(phenoxymethyl)-1,3-thiazol-4-yl]prop-2-enamide] | 100.974%
C=CC(=O)Nc1cn(CCC)cn1 [3-B10, N-(1-propyl-1H-imidazol-4-yl)prop-2-enamide] | 124.336%
O=C(CCl)Nc1ccc(F)c(F)c1F [4-M05, 2-chloro-N-(2,3,4-trifluorophenyl)acetamide] | 85.7551%
CN1C(=CC=C(C#N)C(=O)NCC2CCCO2)C(C)(C)c2ccccc21 (stereo not shown) [8-M04, 2-cyano-N-[(oxolan-2-yl)methyl]-4-(1,3,3-trimethyl-2,3-dihydro-1H-indol-2-ylidene)but-2-enamide] | 149.046%
C=CC(=O)N1CC[C@H](NS(C)(=O)=O)C1 [2-H21, N-[(3S)-1-(prop-2-enoyl)pyrrolidin-3-yl]methanesulfonamide] | 109.661%
N#CC(=CC(Cl)=Cc1ccccc1)C(=O)NC1CCCCC1 [8-D17, 4-chloro-2-cyano-N-cyclohexyl-5-phenylpenta-2,4-dienamide] | 126.805%
C=CC(=O)NC1CCn2cccc2C1 (stereo not shown) [3-N11, N-(5,6,7,8-tetrahydroindolizin-7-yl)prop-2-enamide] | 92.2943%

SMILES | % of control remaining
Cc1ccc(C=C(C#N)C(=O)Nc2ccc(C(=O)O)cc2)s1 [8-E04, 4-[2-cyano-3-(5-methylthiophen-2-yl)prop-2-enamido]benzoic acid] | 88.6307%
N#CCCN(Cc1ccco1)C(=O)CCl [5-D20, 2-chloro-N-(2-cyanoethyl)-N-[(furan-2-yl)methyl]acetamide] | 100.546%
C=CC(=O)NC1CCCN(C2CCCCC2)C1=O (stereo not shown) [3-O18, N-(1-cyclohexyl-2-oxopiperidin-3-yl)prop-2-enamide] | 95.7771%
C=CC(=O)N1CCC(C(=O)Nc2c[nH]c(=O)c(C)c2)CC1 [3-J05, N-(5-methyl-6-oxo-1,6-dihydropyridin-3-yl)-1-(prop-2-enoyl)piperidine-4-carboxamide] | 92.2943%
N#CC(=Cc1cccnc1)C(=O)NCCc1ccccc1 [9-K14, 2-cyano-N-(2-phenylethyl)-3-(pyridin-3-yl)prop-2-enamide] | 104.869%
C=CC(=O)Nc1cc2c(cc1Sc1ccccc1)OCCO2 [1-M13, N-[7-(phenylsulfanyl)-2,3-dihydro-1,4-benzodioxin-6-yl]prop-2-enamide] | 113.934%
C=CC(=O)NCc1ccc(C(=O)N2CCCC(c3nnc[nH]3)C2)cc1 (stereo not shown) [3-E19, N-({4-[3-(4H-1,2,4-triazol-3-yl)piperidine-1-carbonyl]phenyl}methyl)prop-2-enamide] | 115.977%
O=C(CCl)Cc1ccc(F)cc1F [10-G17, 1-chloro-3-(2,4-difluorophenyl)propan-2-one] | 129.688%
CC(Cl)C(=O)NCCS(=O)(=O)Nc1ccccn1 (stereo not shown) [7-L05, 2-chloro-N-{2-[(pyridin-2-yl)sulfamoyl]ethyl}propanamide] | 99.529%
O=C(CCl)NCCCC1CCCCC1 [6-O05, 2-chloro-N-(3-cyclohexylpropyl)acetamide] | 75.4634%
C=CC(=O)NCc1ccc(S(=O)(=O)NC2CC2)cc1 [2-P19, N-{[4-(cyclopropylsulfamoyl)phenyl]methyl}prop-2-enamide] | 104.439%
CC(=O)Nc1cccc(N2C(=O)C=CC2=O)c1 [10-D09, N-[3-(2,5-dioxo-2,5-dihydro-1H-pyrrol-1-yl)phenyl]acetamide] | 117.5%
CN(C)c1ccc(C=C(C#N)C(=O)N2CCC2)cc1 [9-A14, 2-(azetidine-1-carbonyl)-3-[4-(dimethylamino)phenyl]prop-2-enenitrile] | 86.8914%
O=C(CCl)NC1CN(S(=O)(=O)c2ccc3c(c2)OCCO3)C1 [5-I16, 2-chloro-N-[1-(2,3-dihydro-1,4-benzodioxine-6-sulfonyl)azetidin-3-yl]acetamide] | 103.461%
C=CC(=O)NC1CCN(c2nc(C3CC3)cc(C(F)(F)F)n2)CC1 [1-L03, N-{1-[4-cyclopropyl-6-(trifluoromethyl)pyrimidin-2-yl]piperidin-4-yl}prop-2-enamide] | 108.308%
C=CC(=O)NCC(C)(C)c1coc(-c2ccccc2)n1 [3-A03, N-[2-methyl-2-(2-phenyl-1,3-oxazol-4-yl)propyl]prop-2-enamide] | 95.0805%
Cc1c(NC(=O)C(C)Cl)c(=O)n(-c2ccccc2)n1C (stereo not shown) [6-E06, 2-chloro-N-(1,5-dimethyl-3-oxo-2-phenyl-2,3-dihydro-1H-pyrazol-4-yl)propanamide] | 106.878%
N#CC(=Cc1ccc(N2CCCC2)cc1)C(=O)N1CCC(C(N)=O)CC1 [9-K12, 1-(2-cyano-2-{[4-(pyrrolidin-1-yl)phenyl]methylidene}acetyl)piperidine-4-carboxamide] | 96.1798%
C=CC(=O)N1CCC(NC(C)=O)C1 (stereo not shown) [1-B19, N-[1-(prop-2-enoyl)pyrrolidin-3-yl]acetamide] | 126.242%
C=CC(=O)NCC1(c2ccnn2C)CC1 [2-P15, N-{[1-(1-methyl-1H-pyrazol-5-yl)cyclopropyl]methyl}prop-2-enamide] | 87.3803%
Cc1ccc(NC(=O)CCl)c([N+](=O)[O-])c1 [4-A07, 2-chloro-N-(4-methyl-2-nitrophenyl)acetamide] | 74.7022%
C=CC(=O)NC1Cc2ccccc2C1=O (stereo not shown) [1-H21, N-(1-oxo-2,3-dihydro-1H-inden-2-yl)prop-2-enamide] | 91.7802%
O=C(CCl)N1c2ccccc2SCC1c1ccccc1 (stereo not shown) [4-M18, 2-chloro-1-(3-phenyl-3,4-dihydro-2H-1,4-benzothiazin-4-yl)ethan-1-one] | 9.528%

Source: article PMC11995724, “Antibiotic target discovery by integrated phenotypic and activity-based profiling of electrophilic fragments” (Cell chemical biology, 2025)
